The full ranking holds about 33,000 sequences; the median of “E-score (-0.5 to 0.5)” is about -0.021, and the highest 2% start at about 0.32. The list shows a part of the results.
biological target: T1, Zap1 (UniProt P47043); assay: PBM E-score (8-mer binding enrichment) (E-score (-0.5 to 0.5)); higher = stronger / more preferred TF binding; most listed sequences are background and not binding sites; conditions: protein concentration: 200 nM; construct: GST-full length
T1 sequence: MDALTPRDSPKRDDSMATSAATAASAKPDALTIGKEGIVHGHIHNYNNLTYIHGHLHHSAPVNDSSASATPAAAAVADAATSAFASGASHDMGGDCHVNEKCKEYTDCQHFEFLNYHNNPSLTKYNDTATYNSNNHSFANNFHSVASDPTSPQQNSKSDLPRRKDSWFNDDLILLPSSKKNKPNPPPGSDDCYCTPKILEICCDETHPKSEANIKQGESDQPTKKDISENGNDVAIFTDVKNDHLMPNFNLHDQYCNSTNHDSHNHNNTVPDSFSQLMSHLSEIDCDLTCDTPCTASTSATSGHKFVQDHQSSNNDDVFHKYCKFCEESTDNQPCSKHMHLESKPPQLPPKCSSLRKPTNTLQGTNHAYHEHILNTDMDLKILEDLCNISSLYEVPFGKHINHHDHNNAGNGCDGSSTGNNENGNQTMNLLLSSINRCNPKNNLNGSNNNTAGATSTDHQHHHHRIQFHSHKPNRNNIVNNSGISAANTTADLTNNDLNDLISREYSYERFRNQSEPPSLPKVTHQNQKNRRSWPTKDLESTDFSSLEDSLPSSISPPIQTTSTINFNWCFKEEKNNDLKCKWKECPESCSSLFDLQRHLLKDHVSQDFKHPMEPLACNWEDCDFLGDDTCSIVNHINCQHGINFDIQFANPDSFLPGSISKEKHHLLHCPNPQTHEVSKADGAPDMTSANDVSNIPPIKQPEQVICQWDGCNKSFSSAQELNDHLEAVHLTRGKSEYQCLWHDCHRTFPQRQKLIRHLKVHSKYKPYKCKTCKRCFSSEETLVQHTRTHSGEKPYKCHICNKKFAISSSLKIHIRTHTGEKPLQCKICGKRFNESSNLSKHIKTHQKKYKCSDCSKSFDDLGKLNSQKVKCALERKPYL
In short: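 Detection of bound protein used fluorescent anti-GST, with scans normalised by masliner. The proteins were GST-tagged yeast transcription factors applied at about 100-200 nM to universal all-10-mer Agilent arrays made double-stranded by primer extension. Each ungapped eight-base word, pooled with its reverse complement, was scored with an E-score from the Universal PBM Analysis Suite.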

Compared with CGCTGACC, AGTTAAGA is lower in “PBM E-score” value: 0.315 for the first, 0.00562 for the second.

Compared with GGCGACCC, GACCATAC is lower in “PBM E-score” value: 0.202 for the first, 0.0612 for the second.

Going from CGTATTGC to ACGTTGGC, the “PBM E-score” value rises from -0.27 to -0.16.

Compared with CTTGGACC, GGGGTTAC is higher in “PBM E-score” value: -0.122 for the first, 0.464 for the second.

First: CGGGAATA
Second: AGCAGAAC
The “PBM E-score” value of the first is lower: -0.0788 for the first, -0.00799 for the second.

First: CTATGTGC
Second: AGTCGTGA
The “PBM E-score” value of the first is lower: -0.0648 for the first, 0.0725 for the second.

First: CGGGCGAC
Second: AGCATGCG
The “PBM E-score” value of the first is lower: -0.259 for the first, -0.0192 for the second.

First: CCGGTCTC
Second: ACTAGAGA
The “PBM E-score” value of the first is higher: -0.0169 for the first, -0.129 for the second.

Compared with AGTACTCA, GTACCGGA is higher in “PBM E-score” value: -0.0985 for the first, 0.139 for the second.

Going from CGCCGTCC to CCGGGATA, the “PBM E-score” value rises from -0.187 to 0.214.

Going from GGGGGTTA to GCGCGCAA, the “PBM E-score” value rises from 0.0334 to 0.0411.

Compared with CTACTATA, ACAAGGAA is lower in “PBM E-score” value: 0.0998 for the first, 0.0886 for the second.

Compared with AAGTTGGT, ACAATCCC is lower in “PBM E-score” value: 0.16 for the first, -0.106 for the second.

First: CAAGTGTA
Second: GAGGACAA
The “PBM E-score” value of the first is lower: -0.0404 for the first, -0.0262 for the second.

First: ATAGCCCA
Second: CCCCGCGA
The “PBM E-score” value of the first is higher: 0.138 for the first, -0.0717 for the second.

First: CCCTGACA
Second: CGGAGGTC
The “PBM E-score” value of the first is lower: 0.0152 for the first, 0.0868 for the second.

First: CAATTTGA
Second: TACAACGA
The “PBM E-score” value of the first is higher: 0.128 for the first, 0.0208 for the second.

First: ATAAGCTC
Second: CGAAACCC
The “PBM E-score” value of the first is lower: -0.134 for the first, 0.288 for the second.

Going from ACACGCTG to CATAGTTA, the “PBM E-score” value rises from -0.112 to 0.0955.

Compared with ACTTCGCT, AGCGTGGC is lower in “PBM E-score” value: -0.0982 for the first, -0.192 for the second.

Compared with CTGTCGGC, CCAGCTGC is lower in “PBM E-score” value: -0.213 for the first, -0.301 for the second.

Going from GATTTGAC to AATCTATG, the “PBM E-score” value rises from -0.0613 to 0.00595.

Going from CGATCCCG to TATGGTGA, the “PBM E-score” value rises from -0.206 to 0.0727.

Compared with CTCCGCCA, GAGGGGCC is higher in “PBM E-score” value: -0.182 for the first, -0.0201 for the second.

Compared with AGTAGTAG, CCTTACAA is higher in “PBM E-score” value: -0.252 for the first, -0.0124 for the second.

First: AATATACT
Second: ACTTGCCC
The “PBM E-score” value of the first is higher: 0.0391 for the first, -0.28 for the second.

First: GCTCAGCC
Second: GGGACCAA
The “PBM E-score” value of the first is lower: -0.19 for the first, -0.127 for the second.

Compared with AAGGATTC, CAAACTAA is higher in “PBM E-score” value: -0.128 for the first, 0.272 for the second.

First: AACAACCT
Second: AGGGTATC
The “PBM E-score” value of the first is lower: 0.273 for the first, 0.364 for the second.

First: AACACGTC
Second: CGCCAACC
The “PBM E-score” value of the first is lower: -0.186 for the first, -0.101 for the second.

Going from GCATCTCC to GGTAGAAA, the “PBM E-score” value rises from -0.315 to 0.027.

First: AGCGAAAC
Second: ACACTCTC
The “PBM E-score” value of the first is higher: 0.264 for the first, -0.165 for the second.

Compared with CTTTTTCC, CCGCCACA is lower in “PBM E-score” value: 0.0735 for the first, 0.0107 for the second.

Compared with AGATATAT, AGTGACCC is higher in “PBM E-score” value: 0.178 for the first, 0.347 for the second.

Going from ATTGATCA to AATATCGC, the “PBM E-score” value falls from 0.0693 to -0.103.

First: CCCAAACA
Second: CGCGATTA
The “PBM E-score” value of the first is higher: 0.159 for the first, 0.111 for the second.

Going from GAGTTTCA to CCACGCGC, the “PBM E-score” value falls from -0.105 to -0.109.

Going from CCGTTGTA to GCGTGTAC, the “PBM E-score” value falls from 0.211 to -0.0849.

Compared with GATTTCGC, AATACTTG is lower in “PBM E-score” value: 0.14 for the first, -0.101 for the second.

Going from ATAGATCG to CACGCAGC, the “PBM E-score” value falls from -0.0988 to -0.227.

First: AGTACGTC
Second: CAAGTTAG
The “PBM E-score” value of the first is lower: -0.07 for the first, 0.134 for the second.

Going from CTCTAAAA to GCAGCTAC, the “PBM E-score” value falls from 0.0499 to -0.135.

Compared with AAGATTTA, AGGTCAGC is higher in “PBM E-score” value: 0.0704 for the first, 0.286 for the second.

Going from CGCCTAAA to TATATCAA, the “PBM E-score” value rises from -0.00104 to 0.279.

Compared with CCCATGCG, AAGATGGG is lower in “PBM E-score” value: -0.0228 for the first, -0.0996 for the second.

Going from CGTTCTAA to GCCGTCGA, the “PBM E-score” value falls from 0.176 to -0.212.

Going from TCACCCAA to CAACCACC, the “PBM E-score” value rises from 0.162 to 0.212.

Compared with GGCTCCCA, ATGGAGGG is lower in “PBM E-score” value: -0.0912 for the first, -0.242 for the second.

Going from ATTGCCGC to AGTCCATG, the “PBM E-score” value falls from 0.00254 to -0.142.

Going from GCTGATCC to ACCTGAAC, the “PBM E-score” value rises from -0.159 to 0.0973.

First: AAAATATC
Second: AGAATAAC
The “PBM E-score” value of the first is higher: 0.165 for the first, 0.159 for the second.

Going from CGGTACAA to AGAAGCCT, the “PBM E-score” value falls from 0.205 to -0.223.

Compared with CGGTAGAG, CGGCCCGC is lower in “PBM E-score” value: -0.018 for the first, -0.185 for the second.

First: AGGCTGGC
Second: AAACAACG
The “PBM E-score” value of the first is lower: -0.127 for the first, -0.0949 for the second.

Going from AGGCCTTG to GAGGTCGA, the “PBM E-score” value rises from -0.0709 to 0.0415.

Compared with GTGGATAA, CTTTCATC is lower in “PBM E-score” value: 0.0423 for the first, 0.00048 for the second.

Compared with TCATACGA, CGCGGCCC is higher in “PBM E-score” value: 0.0351 for the first, 0.2 for the second.

Going from GAGCTGAC to CGGAAGAC, the “PBM E-score” value falls from 0.122 to 0.0464.

Compared with CTTTAGCA, GCCTTAAA is higher in “PBM E-score” value: -0.201 for the first, 0.163 for the second.

First: ACATGTGG
Second: AAGTTGGA
The “PBM E-score” value of the first is higher: 0.0607 for the first, 0.00097 for the second.

First: CGGTTTAA
Second: CGTTAGGA
The “PBM E-score” value of the first is higher: 0.0515 for the first, 0.0403 for the second.

Compared with CATCAGAC, CACTATTA is higher in “PBM E-score” value: -0.173 for the first, 0.149 for the second.

Going from ACGCCCAT to ACCCATGG, the “PBM E-score” value rises from 0.04 to 0.281.

Going from CGATATTA to GCAGAAAA, the “PBM E-score” value rises from 0.127 to 0.223.

Compared with CCATGAGG, ATTACTGC is lower in “PBM E-score” value: 0.116 for the first, -0.0127 for the second.

Going from GTAGAGAA to AGCTCCCA, the “PBM E-score” value falls from 0.0312 to -0.116.

First: ACCGTGCA
Second: AACATCTA
The “PBM E-score” value of the first is higher: 0.142 for the first, -0.0958 for the second.

Compared with AAAAACTC, CCAGAATA is higher in “PBM E-score” value: 0.113 for the first, 0.222 for the second.

First: CCAACTAA
Second: CACGGTCC
The “PBM E-score” value of the first is higher: 0.0594 for the first, -0.289 for the second.

Going from CCACTTCA to ACCCTTCC, the “PBM E-score” value rises from 0.00735 to 0.281.

Compared with CAGATTCA, GATTCTGC is higher in “PBM E-score” value: -0.274 for the first, -0.0686 for the second.

Compared with GTGGTAAA, ATCAAACG is lower in “PBM E-score” value: -0.0285 for the first, -0.0558 for the second.

Compared with GCGATCGA, ACTTCGGC is lower in “PBM E-score” value: -0.0858 for the first, -0.103 for the second.

Compared with ATTGAAAA, GCTAATTA is lower in “PBM E-score” value: 0.208 for the first, -0.00419 for the second.

Compared with ATCCCGAT, CCCAACAC is lower in “PBM E-score” value: -0.0921 for the first, -0.121 for the second.

Going from ACTATAAT to CACTATGA, the “PBM E-score” value falls from 0.188 to -0.108.

First: AGGAAATC
Second: ACGTTGCG
The “PBM E-score” value of the first is higher: -0.117 for the first, -0.199 for the second.

First: CCACAAAA
Second: CCTGTAAC
The “PBM E-score” value of the first is higher: 0.237 for the first, 0.209 for the second.

First: GCCATAGC
Second: AAATCATC
The “PBM E-score” value of the first is higher: -0.125 for the first, -0.193 for the second.

First: AGACTCTG
Second: AAAAATGT
The “PBM E-score” value of the first is higher: 0.0788 for the first, 0.0172 for the second.

Going from AGAACAAG to AATGATCC, the “PBM E-score” value falls from 0.16 to -0.0244.

Compared with AAGAGGCA, AAGTAGCT is lower in “PBM E-score” value: -0.0754 for the first, -0.276 for the second.

First: GTTGTATA
Second: CACGTGCC
The “PBM E-score” value of the first is higher: 0.117 for the first, -0.0659 for the second.

Compared with CTGTTTCC, AGTTAGAG is higher in “PBM E-score” value: -0.193 for the first, -0.135 for the second.

Compared with CCAAGCAA, AGAATTGA is higher in “PBM E-score” value: -0.119 for the first, 0.0335 for the second.

First: GTTAGTGA
Second: ACGTGTGC
The “PBM E-score” value of the first is higher: 0.00632 for the first, -0.235 for the second.

Reference: the supplement of paper PMC3334620
